Measured values: PubChem BioAssay AID686979 (National Center for Advancing Translational Sciences (NCATS), 2013)
Where “and” joins values, the source holds several entries; their conditions need not be identical. Equal values may be shown once. In all, about 420,000 compounds went through this assay and about 50,000 (12%) were called active. Inconclusive results, whose numbers are uncertain, are shown with a selection of clear calls. Calls come from the whole dose curve; as a rule, active = well fitted inhibition curve with a large enough effect; inconclusive = small, poorly fitted or top-dose-only effect; inactive = flat fitted curve, though single readings scatter. A potency beside an inconclusive call is a rough fit, not a confirmed value.
% is set by controls: 0 for no effect and ±100 for the full control effect; potency is the fitted concentration of half-maximal effect; tags give direction and shape of the fitted curve.

Assay: qHTS for Inhibitors of human tyrosyl-DNA phosphodiesterase 1 (TDP1): qHTS in cells in presence of CPT; note: nearly all actives have a fitted effect of over 55% in size
Details: chicken DT40 Tdp1-/-;hTDP1 cells + 20 nM CPT, ATP luminescence, 48 h; activity change, negative = growth inhibition: at 46.2 µM (top of the series) unless noted
Outline: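 Chicken DT40 Tdp1-/- cells complemented with human TDP1, 400 cells/well, exposed to compounds plus 20 nM camptothecin for at least 48 h at 37 C; viability read as ATP content by CellTiter-Glo luminescence.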
For O=C(c1cc2ccccc2o1)N1CCN(c2ccccc2Cl)CC1, the Potency was inconclusive: 20.6 µM [inhibitor, single point].
In the case of O=C(NNC(=O)c1cccc(S(=O)(=O)N2CCc3ccccc32)c1)c1ccccc1, the Potency is reported as inconclusive: 4.61 µM [inhibitor, partial curve].
For Cc1ccc(C(=O)C2CCN(CC(=O)Nc3ccc4c(c3)OCCO4)CC2)cc1, the “activity change, negative = growth inhibition” value was inactive: -26.6%.
For O=C(CCN1CCN(C(=O)c2ccccc2)CC1)c1ccc(Br)cc1, the Potency was active: 7.31 µM.
For CCCN(CCC)C1=N/C(=C\c2ccco2)C(=O)N1c1ccccc1, the Potency was inconclusive: 25.9 µM [inhibitor, single point].
With CC(C)(C)NC(=O)C1C(c2ccc(C(F)(F)F)cc2)=Nc2ccccc2N1C(=O)c1cccc(C(F)(F)F)c1 (centres undefined) the Potency was inconclusive: 18.4 µM [inhibitor, single point].
In the case of CCc1ccc2[nH]cc(S(=O)(=O)c3ccc(C(C)C)cc3)c(=O)c2c1, the Potency is reported as inconclusive: 25.9 µM [inhibitor, single point].
With CCOc1ccc(-c2c(C#N)c(N)nc3sc(C(=O)c4ccccc4)c(N)c23)cc1 the Potency was inconclusive: 18.4 µM [inhibitor, partial curve].
In the case of Cc1ccnc2nc(C(=O)OCC(=O)N(CC(C)C)CC(C)C)nn12, the “activity change, negative = growth inhibition” value is reported as inactive: -0.985%.
With Nc1ccc(S(=O)(=O)c2cc(O)c3ccccc3c2O)cc1 the Potency was active: 1.46 µM.
With CCN1CCN(S(=O)(=O)c2ccc(Cl)c(C(=O)NCc3nc4ccccc4[nH]3)c2)CC1 the Potency was inconclusive: 20.6 µM [inhibitor, single point].
For COc1ccccc1C(=O)NNC1=C(C(=O)C(F)(F)F)CCC1, the Potency was inconclusive: 23.1 µM [inhibitor, single point].
With Cc1cc(C)cc(OCCSc2nc3ccc(NC(=O)c4ccc5c(c4)OCO5)cc3s2)c1 the Potency was inconclusive: 2.91 µM [inhibitor, full curve].
For Cc1ccc(C)c(C(=O)CN2C3=NCCCN3c3ccccc32)c1, the Potency was active: 16.4 µM.
For Cc1ccc(S(=O)(=O)N(C)C[C@@H]2Oc3ccc(NS(=O)(=O)c4ccccc4)cc3CC(=O)N([C@@H](C)CO)C[C@H]2C)cc1, the Potency was inconclusive: 25.9 µM [inhibitor, single point].
With Nc1c(O)cccc1C(=O)O the Potency was inconclusive: 29.1 µM [inhibitor, single point].
With CC1=NN(C(N)=S)C(=O)C1N=Nc1ccccc1 (centres undefined) the Potency was inconclusive: 16.4 µM [inhibitor, single point].
In the case of Oc1ccccc1-c1nc(-c2cccs2)c(-c2cccs2)[nH]1, the Potency is reported as inconclusive: 20.6 µM [inhibitor, single point].
With COC(=O)C1C(=O)C(C(=O)c2ccc([N+](=O)[O-])cc2)C(=O)CC1(C)C (centres undefined) the “activity change, negative = growth inhibition” value was inactive: 2.61%.
For CNC(=O)C1CCN(S(=O)(=O)c2c(C)noc2/C=C/c2ccc(C)cc2)CC1, the Potency was inconclusive: 14.6 µM [inhibitor, partial curve, poor fit].
In the case of CN(C)S(=O)(=O)c1ccc(C(=O)NCCC(=O)N2CCCC2)cc1, the “activity change, negative = growth inhibition” value is reported as inactive: 4.14%.
With Cc1ccc(C2c3[nH]c4ccccc4c3C[C@H]3C(=O)N(c4ccccc4C(=O)N4CCC[C@H]4C(=O)O)C(=O)N23)cc1 (some centres undefined) the “activity change, negative = growth inhibition” value was inactive: 9.39%.
For Cc1ccc(NC(=O)CN2CCc3cc4c(cc3C2C)OCCCO4)cc1 (centres undefined), the Potency was inconclusive: 23.1 µM [inhibitor, single point].
For NC1=NC(c2cn(-c3ccccc3)nc2-c2cccs2)n2c(nc3ccccc32)N1 (centres undefined), the Potency was inconclusive: 14.6 µM [inhibitor, single point].
For COC(=O)c1ccccc1NC(=O)Cn1cnc2sc(C)c(S(=O)(=O)N3CCC(C)CC3)c2c1=O, the Potency was inconclusive: 29.1 µM [inhibitor, single point].
In the case of Cc1ccc(NC(=S)N2CC(C)OC(C)C2)cc1C (centres undefined), the “activity change, negative = growth inhibition” value is reported as inactive: -8.28%.
In the case of Cn1c(C(=O)NCCN2CCCCCC2)cc2c(=O)n(C)c3ccccc3c21, the Potency is reported as inconclusive: 29.1 µM [inhibitor, single point].
In the case of CC1(C)Cc2ccccc2C(NNC(=O)c2cccnc2)=N1, the “activity change, negative = growth inhibition” value is reported as inactive: -3.39%.
In the case of O=C(Nc1ccc(Cl)cn1)c1ccccc1[N+](=O)[O-], the Potency is reported as inconclusive: 20.6 µM [inhibitor, single point].
With O=C(COc1ccccc1Cl)Nc1ccccc1C(=O)N1CCCCC1 the Potency was inconclusive: 20.6 µM [inhibitor, single point].
In the case of N/C(=N\NS(=O)(=O)c1ccc(Cl)cc1)c1ccccn1, the “activity change, negative = growth inhibition” value is reported as inactive: -7.57%.
In the case of Cc1cc(-c2c(C)[nH]n(-c3ccccc3)c2=O)n[nH]1, the Potency is reported as active: 2.91 µM.
With C/C(=N/NC(=O)c1ccc(C)s1)c1cccc(NC(=O)c2ccoc2C)c1 the Potency was inconclusive: 25.9 µM [inhibitor, single point].
For O=C(c1cnn(C(=O)c2ccco2)c1)c1cc(F)ccc1O, the “activity change, negative = growth inhibition” value was inactive: -25.8%.
For CC1(C(=O)Nc2ccc(Cl)c(Cl)c2)CCN1C(=O)Cc1ccc(-c2ccccc2)cc1 (centres undefined), the Potency was active: 14.6 µM.
For CC(=O)Oc1ccccc1Cn1c(C)c(C(=O)N(C)Cc2ccc(F)cc2)sc1=O, the Potency was inconclusive: 18.4 µM [inhibitor, single point].
In the case of COc1ccc(-c2cnc3c(NC(C)=O)cc(-c4ccc(S(C)(=O)=O)cc4)cn23)cc1OC, the Potency is reported as inconclusive: 6.51 µM [inhibitor, partial curve].
In the case of COc1ccc(C2(C(=O)NCCCN(C)C)CCOCC2)cc1, the “activity change, negative = growth inhibition” value is reported as inactive: 17.8%.
For COc1cc(C#N)c(NC(=O)CN2CCN(CCO)CC2)cc1OC, the “activity change, negative = growth inhibition” value was inactive: 4.1%.
For COc1cccc(-c2cnc(C(O)c3cccc(F)c3)[nH]2)c1 (centres undefined), the Potency was inconclusive: 14.6 µM [inhibitor, partial curve].
In the case of O=C(CSc1ncc(-c2ccc(F)cc2)[nH]1)NCc1ccco1, the Potency is reported as inconclusive: 20.6 µM [inhibitor, partial curve, poor fit].
In the case of CC[C@]1(c2ccccc2C)ON(c2ccccc2C(F)(F)F)C1=O, the “activity change, negative = growth inhibition” value is reported as inactive: -2.77%.
With COc1ccc(S(=O)(=O)NCc2ccccn2)cc1NC(=O)c1ccc(C)cc1 the Potency was active: 7.31 µM.
With CCN(CC(=O)NC1CCS(=O)(=O)C1)S(=O)(=O)c1c(C)c(C)cc(C)c1C (centres undefined) the “activity change, negative = growth inhibition” value was inactive: 2.9%.
With CCCC(=O)Nc1ccc2nn(-c3ccc(OC)cc3)nc2c1 the Potency was inconclusive: 25.9 µM [inhibitor, single point].
In the case of O=C(CSc1ccccc1Cl)N1CCC(c2nc3ccccc3s2)CC1, the Potency is reported as inconclusive: 29.1 µM [inhibitor, single point].
In the case of CCON1C(=O)C(C)(C)N(OCC)C(=O)C1(C)C, the Potency is reported as inconclusive: 18.4 µM [inhibitor, partial curve].
In the case of COc1cc2c(cc1OC)/C(=C/C(=O)c1ccc(C)cc1)NCC2, the Potency is reported as inconclusive: 18.4 µM [inhibitor, single point].
For COc1ccc(/C=N/n2cc(-c3ccc(OC)cc3)nc2N)cc1, the Potency was inconclusive: 20.6 µM [inhibitor, single point].
With Clc1ccc(C[n+]2csc3ccccc32)cc1 the Potency was active: 0.411 µM.
With Cc1ccccc1C(=O)NNC(=O)C(C)N1C(=O)c2ccccc2C1=O (centres undefined) the “activity change, negative = growth inhibition” value was inactive: -1.29%.
For O=C(C1CCCC1)N1CCC(CO)(Cc2ccccc2Cl)CC1, the Potency was inconclusive: 23.1 µM [inhibitor, partial curve, poor fit].
With COC(=O)c1ccc(NC(=O)CN2CCN(S(=O)(=O)c3cc(Cl)ccc3OC)CC2)cc1 the Potency was inconclusive: 29.1 µM [inhibitor, single point].
For Cc1nc2ccc(NC(=O)c3ccc(Cl)c([N+](=O)[O-])c3)cc2s1, the “activity change, negative = growth inhibition” value was inactive: -22%.
For O=c1c2ccccc2oc2ccc(Oc3ccccc3)cc12, the Potency was inconclusive: 11.2 µM [inhibitor, single point] and inconclusive: 9.2 µM [inhibitor, partial curve, poor fit].
For Cn1c(CC(=O)Nc2ccccc2F)nnc1SCC(=O)Nc1nccs1, the “activity change, negative = growth inhibition” value was inactive: 3.4%.
In the case of O=C(COc1ccc(Cc2ccccc2)cc1)c1ccc(F)cc1, the Potency is reported as inconclusive: 32.6 µM [inhibitor, single point].
For CCOc1ccc(NC(=O)c2ccco2)cc1, the “activity change, negative = growth inhibition” value was inactive: -23.1%.
With COc1ccc(C(C(=O)NC2CCCC2)N(C(=O)c2ccco2)c2cc3c(cc2C(C)=O)OCO3)cc1 (centres undefined) the “activity change, negative = growth inhibition” value was inactive: 6.92%.
In the case of CC1C(=O)N(Cc2cccc(F)c2)c2ccccc2N1C(=O)c1ccccc1 (centres undefined), the Potency is reported as inconclusive: 29.1 µM [inhibitor, single point].
For CCC1CCCCN1C(=O)COC(=O)c1cc(=O)[nH]c2ccccc12 (centres undefined), the “activity change, negative = growth inhibition” value was inactive: -2.81%.
In the case of Cc1nc2ccccc2n1-c1ccccc1, the Potency is reported as inconclusive: 13 µM [inhibitor, single point].
With COc1ccc(Cc2nnc3n2N=C(c2cc4ccccc4o2)CS3)cc1OC the Potency was inconclusive: 29.1 µM [inhibitor, single point].
In the case of O=C(CCCn1c(SCc2cccc(F)c2)nc2ccccc2c1=O)NCC1CCCO1 (centres undefined), the Potency is reported as inconclusive: 29.1 µM [inhibitor, single point].
With CCN(CC)S(=O)(=O)c1cccc(NC(=O)COc2ccc(F)cc2Br)c1 the Potency was inconclusive: 18.4 µM [inhibitor, single point].
For COc1cccc(C(=O)NCCc2csc3nc(-c4ccccc4F)nn23)c1OC, the Potency was active: 25.9 µM.
For Cc1ccccc1N(C)S(=O)(=O)c1nnc(NC(=O)c2ccco2)s1, the Potency was “inactive and inconclusive: 29.1 µM [inhibitor, single point]”.
For COc1ccc(NC(=O)c2sc(=O)n(Cc3ccc(S(=O)(=O)N(C)C)cc3)c2C)cc1, the Potency was inconclusive: 25.9 µM [inhibitor, single point].
For CC(C)(CNC(=O)c1ccc(Br)o1)CNC(=O)c1ccc(Br)o1, the Potency was inconclusive: 20.6 µM [inhibitor, single point].
